# According to the supplement of paper PMC4166925:
# ± gives the standard deviation of the averaged measurements. In all, about 33,000 sequences were measured (“E-score (dimensionless, -0.5 to 0.5)”: median about -0.046, highest 2% from about 0.36 on). This is one part of the list.
# Tested on: T1, SpTbr T-box DNA-binding domain (GST fusion)
# T1 sequence: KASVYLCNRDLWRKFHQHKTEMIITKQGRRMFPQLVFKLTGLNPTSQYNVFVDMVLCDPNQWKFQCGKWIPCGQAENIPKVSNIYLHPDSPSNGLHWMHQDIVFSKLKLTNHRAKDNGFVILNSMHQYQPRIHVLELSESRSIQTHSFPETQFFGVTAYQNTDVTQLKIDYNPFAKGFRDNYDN
# Test: PBM E-score of 8-mer (E-score (dimensionless, -0.5 to 0.5)); Tbr is Tbrain of the sea star Patiria miniata (Pm) or the sea urchin Strongylocentrotus purpuratus (Sp); higher = stronger binding preference; most listed sequences are background and not binding sites
# Conditions: the construct has about 5 more residues each side
# Outline: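 Universal Agilent oligonucleotide arrays, made double-stranded by primer extension, were incubated with 200 nM GST-fused Tbr T-box DNA-binding domain in PBS (pH 7.5). The protein was expressed in BL21 E. coli at 20 °C and purified by glutathione affinity chromatography. After scanning and quantification, the Universal PBM Analysis Suite assigned an enrichment E-score to each ungapped 8-mer, averaged over duplicate arrays.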
row,Sequence,PBM E-score of 8-mer
1,ATTTATGC,-0.113 ± 0.077
2,GACAAAAC,0.0697 ± 0.024
3,ACGCTTAG,0.117 ± 0.025
4,AGACTACA,-0.00961 ± 0.00044
5,AATCGTCT,-0.0595 ± 0.019
6,CAGGTTCG,0.0675 ± 0.0036
7,AGTGTATG,-0.0196 ± 0.045
8,AGGCGTCA,0.41 ± 0.005
9,AAGCATTC,-0.15 ± 0.033
10,ATTCCGAG,-0.0973 ± 0.067
11,CGGGGACC,-0.349 ± 0.093
12,CGGAGGCC,-0.367 ± 0.043
13,CACTGGCA,0.0605 ± 0.071
14,CCAGCTCG,0.0817 ± 0.089
15,TCATACAA,0.0828 ± 0.045
16,ATATTCTG,0.0118 ± 0.0024
17,CTATTGAA,-0.125 ± 0.061
18,AATACGTC,-0.0254 ± 0.053
19,CTTACGCA,0.0993 ± 0.0077
20,CTAAGGTA,-0.0772 ± 0.058
21,ACTTGTCC,0.139 ± 0.015
22,ATTAGCGA,0.109 ± 0.096
23,ATTACATC,-0.113 ± 0.0093
24,AGATAAGG,-0.105 ± 0.031
25,AGGTATAT,-0.0323 ± 0.0066

row,Sequence,PBM E-score of 8-mer
1,ACAAGCCT,0.0279 ± 0.036
2,TAGTGACA,0.417 ± 0.011
3,GGTAGCTA,-0.314 ± 0.032
4,GTCTGCAA,0.0485 ± 0.0099
5,AGGGGATC,-0.0989 ± 0.068
6,ATTGTCAG,0.0298 ± 0.045
7,AGCGACCC,-0.119 ± 0.0033
8,GAGAGACA,-0.0285 ± 0.021
9,CGTAATCC,-0.0586 ± 0.074
10,ACTGTACC,-0.175 ± 0.043
11,AGCCGCAG,-0.132 ± 0.0029
12,GACGAATA,-0.00716 ± 0.079
13,CGTACAGA,-0.22 ± 0.072
14,ATCTTCAA,-0.216 ± 0.015
15,AATATGAG,-0.105 ± 0.034
16,AAGGAATG,-0.156 ± 0.034
17,ACACGCTC,0.151 ± 0.0097
18,GGGGCGCA,-0.227 ± 0.038
19,ATCTAGCC,-0.279 ± 0.0046
20,ACATTGAA,-0.147 ± 0.048
21,CAGACTCG,-0.173 ± 0.011
22,ACCTCAGC,0.151 ± 0.039
23,CTTGCCGA,0.177 ± 0.018
24,ATTAGCTC,0.00266 ± 0.0068
25,CCGCACCG,0.176 ± 0.024

row,Sequence,PBM E-score of 8-mer
1,ATAACCTA,-0.141 ± 0.0093
2,AGGGCATG,-0.167 ± 0.061
3,AGCCTACA,-0.0276 ± 0.02
4,ACCGTGAA,0.308 ± 0.026
5,GGGCCTGA,-0.279 ± 0.0039
6,CACTCGCC,0.0885 ± 0.056
7,CAACAGCC,-0.0955 ± 0.027
8,CCGGTACA,-0.0965 ± 0.044
9,CACGAAGA,-0.0563 ± 0.034
10,ATGTCATC,-0.144 ± 0.015
11,ACAGGTGC,0.436 ± 0.013
12,AGTGCCAG,0.248 ± 0.0097
13,ACGTAGTA,-0.261 ± 0.0064
14,ACGGGCGA,0.158 ± 0.0024
15,ACTGATGG,-0.00902 ± 0.051
16,GATTGGAA,-0.238 ± 0.014
17,AAGTCATA,-0.0733 ± 0.096
18,GATACTAA,-0.0271 ± 0.017
19,AGAGGGGA,-0.116 ± 0.05
20,GTCTCACA,0.382 ± 0.0069
21,AACCGGCG,-0.0711 ± 0.075
22,GCAACCGC,0.029 ± 0.0016
23,ATGGAAAG,-0.0132 ± 0.082
24,ACGCAAGA,-0.0517 ± 0.024
25,ACAGGTTG,0.221 ± 0.066

row,Sequence,PBM E-score of 8-mer
1,CCGTTTCA,0.00745 ± 0.022
2,CCACGCTA,-0.0696 ± 0.069
3,CAGTGTCA,0.3068 ± 0.002
4,CTCTACGA,-0.24 ± 0.1
5,TACATAGA,-0.257 ± 0.092
6,AGCCTCCG,-0.3206 ± 0.0028
7,GAAACACA,0.147 ± 0.028
8,GACCCATC,-0.125 ± 0.057
9,CGCGGAAA,0.0452 ± 0.051
10,CAGCGACA,0.267 ± 0.016
11,CTGCTGCA,-0.0183 ± 0.02
12,CGCAGAAC,-0.15 ± 0.0027
13,CATTTCGG,-0.0614 ± 0.07
14,ACGGATAA,-0.107 ± 0.1
15,CCACTTCC,0.072 ± 0.0026
16,AGTTTGAC,0.143 ± 0.018
17,ATCAAGAC,-0.0819 ± 0.046
18,AGTCCTGG,-0.262 ± 0.021
19,AACTTTGA,-0.142 ± 0.012
20,ACCCGTCG,0.189 ± 0.015
21,AGGAAAGA,-0.138 ± 0.044
22,CGCATCTC,0.0815 ± 0.0093
23,AGCACTCG,0.0623 ± 0.0054
24,CAAAGATG,0.0333 ± 0.031
25,TCCTCGCA,0.32 ± 0.0082

row,Sequence,PBM E-score of 8-mer
1,CCATCCTC,-0.0525 ± 0.015
2,AGGTTAAA,-0.259 ± 0.084
3,CGAGGGCG,0.175 ± 0.068
4,ACACAGAC,0.0656 ± 0.061
5,ATATATGG,-0.285 ± 0.026
6,ACCATATC,-0.0486 ± 0.037
7,CAGCTTGA,-0.108 ± 0.051
8,AGTCTAAG,-0.3169 ± 0.0024
9,AGTACATA,-0.159 ± 0.097
10,GCAGTTCC,-0.108 ± 0.012
11,ATTCTCAA,0.138 ± 0.062
12,CCTCGTCA,0.243 ± 0.041
13,ACTCAGTG,-0.0601 ± 0.013
14,CTAGTTGA,0.0724 ± 0.0029
15,CCCTGTAA,0.137 ± 0.0029
16,AAAAAGCT,-0.194 ± 0.11
17,CTCACTAC,0.116 ± 0.05
18,AATTAGAG,-0.242 ± 0.034
19,GGCCGACC,-0.314 ± 0.012
20,TATGCAAA,-0.0882 ± 0.035
21,AAATGCTA,-0.106 ± 0.042
22,AACGGGCA,0.00372 ± 0.033
23,AGAATATA,-0.143 ± 0.0095
24,AATGCATC,0.00662 ± 0.039
25,ACGATTCA,0.12 ± 0.031

row,Sequence,PBM E-score of 8-mer
1,AGGGTAAT,-0.142 ± 0.019
2,CGCTCCCC,-0.0404 ± 0.07
3,TCCTCAAA,-0.227 ± 0.043
4,TGCATTAA,0.022 ± 0.05
5,TCTTACCA,-0.00983 ± 0.026
6,CAAGTAGA,-0.0961 ± 0.025
7,AGGGACGA,0.053 ± 0.072
8,CCGGCAAC,0.1597 ± 0.00047
9,CTAGGAAA,-0.206 ± 0.045
10,ATGACTGG,-0.13 ± 0.0031
11,CCGTCCCG,-0.0649 ± 0.04
12,GAGCTATC,-0.177 ± 0.04
13,CCTTATGC,-0.158 ± 0.016
14,GCGGCGGA,0.0142 ± 0.09
15,GAGATGGC,-0.0157 ± 0.0073
16,GTCCAGAA,-0.3462 ± 0.0029
17,CGTCACCC,0.329 ± 0.048
18,CATAGCGA,-0.0855 ± 0.0029
19,GTCCCTGA,-0.163 ± 0.057
20,AGGTGGGG,0.238 ± 0.056
21,CACAGTTC,0.143 ± 0.061
22,CACTTTCG,0.255 ± 0.012
23,AAAATGGC,-0.252 ± 0.044
24,GAACGAAC,0.0292 ± 0.063
25,AAAGTCCA,-0.342 ± 0.019

row,Sequence,PBM E-score of 8-mer
1,AGCCTGGA,-0.223 ± 0.026
2,AATCCCTA,-0.0686 ± 0.09
3,AGGGCTAG,-0.124 ± 0.033
4,ACTATCCT,-0.0859 ± 0.077
5,CTCAACTA,0.0969 ± 0.0033
6,AGGGTCAG,-0.136 ± 0.036
7,AGACAGAC,-0.0381 ± 0.013
8,GTAGACTA,-0.14 ± 0.053
9,ATATAGAA,-0.289 ± 0.088
10,AGTCGAGG,0.0144 ± 0.029
11,TAATAGAA,-0.0195 ± 0.012
12,ACTTACCA,0.137 ± 0.041
13,CCTTGGGA,-0.206 ± 0.074
14,ACCCCGAC,-0.0242 ± 0.1
15,CGGGCTAA,-0.275 ± 0.0053
16,TAGACACA,0.0942 ± 0.012
17,AGTTGTCA,0.393 ± 0.016
18,TCTATCCA,-0.391 ± 0.02
19,ACTTATCA,0.211 ± 0.039
20,ATAAGGGG,-0.0638 ± 0.01
21,TAATGCCA,-0.0895 ± 0.08
22,GCCTCAAC,-0.0908 ± 0.025
